Measurements: ChEMBL document CHEMBL1961873, “Compounds: GSK PKIS; Assays: Nanosyn kinase panel” (2012)
This is a selection; strong and weak results do not stand in their true shares.

Target: Protein kinase C alpha type (Homo sapiens) (UniProt P17252);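 further: reported value is the mean inhibition, measured within the GSK PKIS screening panel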
Details: at 1 µM

Compared with `O=C1NC(=O)C(c2ccccc2)=C1Nc1ccccc1`, `COc1ccccc1C1=C(Nc2ccccc2)C(=O)NC1=O` is higher in inhibition: 8.34% for the first, 9.05% for the second.

Compared with `CC(C)(C)c1ccc(Oc2nccc(-c3c(-c4ccc(F)cc4)ncn3C3CCNCC3)n2)cc1`, `Fc1ccc(Oc2nccc(-c3c(-c4ccc(F)cc4)ncn3C3CCNCC3)n2)cc1` is lower in inhibition: 4.89% for the first, -2.01% for the second.

First: Cc1cccc(Oc2nccc(-c3c(-c4ccc(F)cc4)ncn3C3CCNCC3)n2)c1C
Second: COc1ccccc1Oc1nccc(-c2c(-c3ccc(F)cc3)ncn2C2CCNCC2)n1
The inhibition of the first is higher: 1.91% for the first, 1.42% for the second.

First: Fc1ccc(-c2ncn(C3CCNCC3)c2-c2ccnc(Oc3cccc(C(F)(F)F)c3)n2)cc1
Second: Fc1ccc(-c2ncn(C3CCNCC3)c2-c2ccnc(Oc3cccc(F)c3)n2)cc1
The inhibition of the first is lower: 3.09% for the first, 4.73% for the second.

Compared with `O=C1NC(=O)C(c2ccccc2Cl)=C1Nc1cc(Cl)c(O)c(Cl)c1`, `O=C1NC(=O)C(c2cccc([N+](=O)[O-])c2)=C1Nc1cc(Cl)c(O)c(Cl)c1` is lower in inhibition: 3.25% for the first, 1.77% for the second.

Going from `CS(=O)(=O)c1ccc(Oc2nccc(-c3c(-c4ccc(F)cc4)ncn3C3CCNCC3)n2)cc1` to `Fc1ccc(-c2ncn(C3CCNCC3)c2-c2ccnc(Oc3ccc(Cl)cc3)n2)cc1`, the inhibition falls from 2.33% to 2.11%.

Going from `NC(=O)CCc1ccccc1Oc1nccc(-c2c(-c3ccc(F)cc3)ncn2C2CCNCC2)n1` to `O=C(O)c1ccc(Oc2nccc(-c3c(-c4ccc(F)cc4)ncn3C3CCNCC3)n2)cc1`, the inhibition rises from -0.05% to 1.21%.

Target: Protein kinase C beta type (Homo sapiens) (UniProt P05771);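 further: PKC-beta1 splice variant of the enzyme, figure reported as mean inhibition, measured within the GSK PKIS kinase profiling panel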
Details: at 0.1 µM

Compared with `O=C1NC(=O)C(c2ccccc2)=C1Nc1ccccc1`, `COc1ccccc1C1=C(Nc2ccccc2)C(=O)NC1=O` is higher in inhibition: 2% for the first, 2.3% for the second.

Compared with `CC(C)(C)c1ccc(Oc2nccc(-c3c(-c4ccc(F)cc4)ncn3C3CCNCC3)n2)cc1`, `Fc1ccc(Oc2nccc(-c3c(-c4ccc(F)cc4)ncn3C3CCNCC3)n2)cc1` is higher in inhibition: 0.73% for the first, 1.77% for the second.

First: Cc1cccc(Oc2nccc(-c3c(-c4ccc(F)cc4)ncn3C3CCNCC3)n2)c1C
Second: COc1ccccc1Oc1nccc(-c2c(-c3ccc(F)cc3)ncn2C2CCNCC2)n1
The inhibition of the first is lower: -0.74% for the first, 1.79% for the second.

Compared with `Fc1ccc(-c2ncn(C3CCNCC3)c2-c2ccnc(Oc3cccc(C(F)(F)F)c3)n2)cc1`, `Fc1ccc(-c2ncn(C3CCNCC3)c2-c2ccnc(Oc3cccc(F)c3)n2)cc1` is higher in inhibition: 0.77% for the first, 2.31% for the second.

Going from `O=C1NC(=O)C(c2ccccc2Cl)=C1Nc1cc(Cl)c(O)c(Cl)c1` to `O=C1NC(=O)C(c2cccc([N+](=O)[O-])c2)=C1Nc1cc(Cl)c(O)c(Cl)c1`, the inhibition falls from 0.56% to -0.53%.

First: CS(=O)(=O)c1ccc(Oc2nccc(-c3c(-c4ccc(F)cc4)ncn3C3CCNCC3)n2)cc1
Second: Fc1ccc(-c2ncn(C3CCNCC3)c2-c2ccnc(Oc3ccc(Cl)cc3)n2)cc1
The inhibition of the first is higher: 2.26% for the first, 1.12% for the second.

Going from `NC(=O)CCc1ccccc1Oc1nccc(-c2c(-c3ccc(F)cc3)ncn2C2CCNCC2)n1` to `O=C(O)c1ccc(Oc2nccc(-c3c(-c4ccc(F)cc4)ncn3C3CCNCC3)n2)cc1`, the inhibition rises from -1.55% to 1.67%.
